These results are taken from patent publication US20240384006A1 (Amgen, published 2024).

Where a chain is given by its changes, count along the chain named. In names and notes the source's numbering stands.

Assay [1] has as its target T1, human CD20 (human, UniProt P11836 1-297).
T1 sequence (looked up): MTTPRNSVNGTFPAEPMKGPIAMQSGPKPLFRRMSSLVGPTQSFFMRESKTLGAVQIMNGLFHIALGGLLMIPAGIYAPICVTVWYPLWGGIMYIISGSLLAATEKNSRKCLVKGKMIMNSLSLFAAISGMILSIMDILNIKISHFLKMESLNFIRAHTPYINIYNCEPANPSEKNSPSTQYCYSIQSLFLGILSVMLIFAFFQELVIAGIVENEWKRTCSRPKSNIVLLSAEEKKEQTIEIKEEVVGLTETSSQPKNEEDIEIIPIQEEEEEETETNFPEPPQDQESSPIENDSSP
Nature of the assay: cell-based or functional assay.

For assay [2], the target named is T2, human CD22 (human, UniProt P20273 20-847).
T2 sequence (looked up): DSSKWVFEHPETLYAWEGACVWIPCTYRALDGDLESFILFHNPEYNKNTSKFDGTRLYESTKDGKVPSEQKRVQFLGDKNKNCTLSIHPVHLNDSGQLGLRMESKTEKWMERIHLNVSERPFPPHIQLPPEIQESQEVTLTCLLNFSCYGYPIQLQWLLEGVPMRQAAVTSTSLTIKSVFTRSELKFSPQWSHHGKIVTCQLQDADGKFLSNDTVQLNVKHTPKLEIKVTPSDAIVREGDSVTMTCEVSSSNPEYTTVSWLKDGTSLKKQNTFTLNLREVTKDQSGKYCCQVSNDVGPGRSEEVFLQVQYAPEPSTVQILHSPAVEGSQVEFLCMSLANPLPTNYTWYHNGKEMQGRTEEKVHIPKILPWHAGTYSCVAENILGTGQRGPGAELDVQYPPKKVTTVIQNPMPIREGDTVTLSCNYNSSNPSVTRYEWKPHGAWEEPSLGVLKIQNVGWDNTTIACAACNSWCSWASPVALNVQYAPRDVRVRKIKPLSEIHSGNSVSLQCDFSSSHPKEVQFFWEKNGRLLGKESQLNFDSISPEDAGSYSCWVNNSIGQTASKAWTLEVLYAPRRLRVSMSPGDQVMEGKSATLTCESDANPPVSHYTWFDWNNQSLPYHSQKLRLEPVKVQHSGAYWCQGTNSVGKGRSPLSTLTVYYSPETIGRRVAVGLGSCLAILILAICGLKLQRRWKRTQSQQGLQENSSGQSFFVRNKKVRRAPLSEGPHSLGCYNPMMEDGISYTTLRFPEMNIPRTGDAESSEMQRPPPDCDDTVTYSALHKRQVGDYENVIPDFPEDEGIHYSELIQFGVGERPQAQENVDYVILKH
Nature of the assay: cell-based or functional assay.

The target of assay [3] is T3, cyno CD20 (cyno, UniProt M4ZHZ6 1-297).
T3 construct: whole, on cells; also called cy CD20
T3 sequence: T1 sequence (looked up) with S25P, F31L, T51A, A157V, K217R, N226S, I227V, T239V
In words: cyno Kd divided by human Kd, cell-based affinity on CHO cells.

Assay [4] concerns the target T4, cyno CD22 (cyno).
T4 construct: whole, on cells; also called cy CD22
The description is as above.

Assay [5] concerns the target T3, cyno CD20. In words: flow cytometry on CHO cells expressing cyno CD20, one site-specific binding fit, mean of three.
In assay [6] the target is T4, cyno CD22. In words: flow cytometry on CHO cells expressing cyno CD22, one site-specific binding fit, mean of three. For orientation: In flow cytometry, cells or beads pass a laser one at a time.
The target of assay [7] is T1, human CD20. Nature of the assay: flow cytometry on CHO cells expressing human CD20, one site-specific binding fit, mean of three.
Assay [8] has as its target T2, human CD22. Nature of the assay: flow cytometry on CHO cells expressing human CD22, one site-specific binding fit, mean of three.

B1: CD20 82-E2 CC × CD22 43-F7 CC × I2E × scFc (M8E) (bispecific antibody)
chain: EVQLVESGGGLVQPGGSLTLSCAASGFTFHDYTMHWVRQTPGKCLEWLSGIGWNGYSKGYADSVKGRFTISRDNAKNSLFLQMNSLTSDDTALYYCVKDYHYGSGILDNYYGLDVWGQGTTVTVSSGGGGSGGGGSGGGGSEIVLTQSPATLSVSPGERATLSCRASQSISNNLAWYQQKPGQAPRLLIYGASSRATGIPDRFSGSGSGTEFTLTISSLQSEDFAVYYCQQYKNWPLTFGCGTKVDIKSGGGGSQVQLVQSGGEVKKPGASVKVSCKASGYTFTSYGISWVRQAPGQCLEWMGWISPQTGNAIYAQKLQGRVTMTRDTSTSTAYMELRSLRSDDTAVYYCARDPDYYGSGSYSDYWGQGTLVTVSSGGGGSGGGGSGGGGSEIVLTQSPATLSVSPGERATLSCRASQSVSSNLAWYQQKPGQAPRLLIYGASSRATGIPARFSGSGSGTEFTLTISSLQSEDFAVYYCQQYHSWPLLTFGCGTKVEIKSGGGGSEVQLVESGGGLVQPGGSLKLSCAASGFTFNKYAINWVRQAPGKGLEWVARIRSKYNNYATYYADAVKDRFTISRDDSKNTVYLQMNNLKTEDTAVYYCARAGNFGSSYISYWAYWGQGTLVTVSSGGGGSGGGGSGGGGSQTVVTQEPSLTVSPGGTVTIT[in this place about 80 residues]FGSGTKLTVLGGGG[in this place human IgG1 Fc with R292C N297G V302C (EU numbers)]GGGGSGGGGSGGGGSGGGGSGGGGSGGGGS[in this place human IgG1 Fc with R292C N297G V302C (EU numbers)]
notes: Single chain: anti-CD20 scFv, anti-CD22 scFv, anti-CD3 scFv (I2E), scFc
For orientation: Kd means the free concentration of one partner at which half of the binding sites on the other are occupied at equilibrium, for simple one-to-one binding. For B1, in the assay with human CD20 [1], the “EC50, 48-hour FACS based cytotoxicity assay, Oci-Ly 1 CD22 k.o. #A1” value was determined as 0.00151 nM. Further, in the assay with human CD22 [2], the “EC50, 48-hour FACS based cytotoxicity assay, Oci-Ly 1 CD20 k.o. #A5” value was 0.00569 nM. In the assay with cyno CD20 [3], the “Affinity gap Kdcy/Kdhu CD20” value turned out to be 1.01. Besides, the “Affinity gap Kdcy/Kdhu CD22” value in the assay with cyno CD22 [4] was found to be 16.6. Also, the Kd with cyno CD20 [5] was found to be 4.76 nM; with cyno CD22 [6] it was 4.16 nM; in the assay with human CD20 [7], 4.69 nM; in the assay with human CD22 [8] it was 0.25 nM.
